Assay results as given in PubChem BioAssay AID463173 (ICCB-Longwood Screening Facility, Harvard Medical School, 2010).
The campaign covered roughly 52,000 compounds. About 4,300 (8.3%) were called active. No stated cut-off is given here; in the data, active means survival mostly below about 52% (no sharp cut-off); inactive means mostly above about 56%. The list shows a part of the results.

The molecules below were run on DeltatarO mutant (assay: S. aureus survival, RN4220 and DeltatarO strains – OD600, teichoic acid synthesis inhibitors, primary screen (AID 463173)). Conditions: S. aureus RN4220 wild type/DeltatarO growth, OD600, 18 h, stronger effect = lower value, screened at 18.75 µg/mL (by protocol).

SMILES	survival
Cc1cccc(CN2C(=O)c3ccccc3S(=O)(=O)c3ccc(C(=O)N(C)Cc4ccccc4)cc32)c1	inactive: 87%
Cc1cccc(NC(=O)Cn2nnc(C(=O)NCc3cccs3)c2N)c1	inactive: 90%
CCC(C(=O)Nc1ccc(C(C)C)cc1)n1nc(C)n2c(cc3cc(C)ccc32)c1=O (configuration not stated)	inactive: 70%
COc1ccc(Cl)cc1NC(=O)CCn1c(=O)c2cccn2c2ccccc21	active: 42%
CN(C)c1ccc(CNC(=O)C2CCCN(S(=O)(=O)c3ccc4c(c3)CCCC(=O)N4)C2)cc1 (configuration not stated)	inactive: 117%
CC(=O)Nc1ccc(NC(NC(=O)c2ccco2)C(=O)c2ccc(Cl)cc2)cc1 (configuration not stated)	inactive: 91%
CC(=O)Nc1cc(-c2ccc(Cl)cc2)[nH]n1	inactive: 106%
Cc1ccccc1C(=O)NCc1nc(-c2ccc(Cl)cc2)no1	active: 47%
Cc1ccc(C)c(Cn2c(=O)cc(C(F)(F)F)c3c(C)nn(C)c32)c1	inactive: 102%
CCc1nnc(SCc2nc(-c3cccc(Cl)c3)oc2C)c2cc3sc(C)cc3n12	inactive: 85%
COc1cc(OC)c(NS(=O)(=O)c2cc3c(cc2C)N(C(C)=O)CCO3)cc1Cl	inactive: 89%
CN(C)CCN1C(=O)c2ccccc2C1=O	inactive: 81%
Cc1ccc(-c2cc3c(n2-c2ccc(C)cc2)CC(C)(C)CC3=O)cc1	inactive: 74%
Cc1ccc(-c2noc(CNC(=O)c3ccccc3)n2)cc1	inactive: 63%
CCC1CN(C(=O)N2CCC(C(=O)NCc3ccccc3C)CC2)c2ccccc2O1 (configuration not stated)	inactive: 88%
CCOC(=O)C1Cc2ccccc2CN1 (configuration not stated)	inactive: 94%
CC(C)NC(=O)C1CCN(c2nc3ccccc3nc2C(F)(F)F)CC1	inactive: 101%
Cc1ccc(C2=NN(CC(=O)NCCN(CC(C)C)CC(C)C)C(=O)CC2)cc1	inactive: 131%
O=C(NCc1ccccc1)c1ccc(CSc2nc3cccnc3n2Cc2ccccc2F)cc1	inactive: 101%
Cc1ccc(Cn2c(C)c(CNCCCc3ccccc3)c(C(=O)O)c2C)cc1	inactive: 83%
CCOc1cc(S(=O)(=O)N(CC)CC)c(OCC)cc1-n1cnnn1	inactive: 76%
Cc1ccc2nc(Cl)c(CO)cc2c1	inactive: 71%
CCCCNC(=O)CSc1nnc(C)c2c(C)n(-c3ccccc3)nc12	inactive: 75%

SMILES	survival
CCCc1nc(C(C#N)c2ccc(F)cc2)c2nnn(Cc3ccccc3)c2n1 (configuration not stated)	inactive: 90%
CC1CCN(S(=O)(=O)c2ccc3c(c2)CCC(=O)N3CC(=O)Nc2cccc(C#N)c2)CC1	inactive: 78%
Cc1nc(N2CCCC2)ncc1C(=O)Nc1ccc(F)cc1F	inactive: 90%
COc1ccccc1OCC(=O)Nc1nc(-c2ccc(Br)cc2)ns1	inactive: 65%
Cc1ccc(NC(=O)C2CCN(S(=O)(=O)c3c(C)noc3/C=C/c3ccco3)CC2)cc1C	inactive: 66%
CC(C)N(Cc1ccccc1)C(=O)CCS(=O)(=O)c1ccc2c(c1)oc(=O)n2C	inactive: 102%
Cc1ccc(S(=O)(=O)c2cn(C)c3cc(N4CCCC(C)C4)c(F)cc3c2=O)c(C)c1 (configuration not stated)	inactive: 81%
O=C(NCCOCCn1c(=O)oc2ccccc21)Nc1ccc(F)cc1	inactive: 67%
Cc1cccc(N(C)C(=O)CSc2nc3ncccc3o2)c1	inactive: 67%
Cc1ccc2c(c1)cc1c(=O)n(CC(=O)N3CCCCC3)nc(C)n12	inactive: 90%
O=C(NCC1CCCO1)c1c[nH]c2ccc(S(=O)(=O)Nc3cccc(C(F)(F)F)c3)cc2c1=O (configuration not stated)	inactive: 80%
COc1ccc2c(c1)c1c(c(=O)n(-c3ccccc3)c(=O)n1CC(=O)Nc1ccc(C)c(C)c1)n2C	inactive: 71%
CN(Cc1ccccc1)S(=O)(=O)c1nnc(NC(=O)c2ccccc2)s1	active: 26%
Cc1ccc(CN2CCc3nc(N4CCN(C)CC4)ncc3C2)s1	inactive: 82%
Cc1ccc(-n2ncc3c(N4CCC(Cc5ccccc5)CC4)ncnc32)cc1	inactive: 96%
Cc1c(Cl)cccc1NC(=O)Cn1cnc2nc3c(cc2c1=O)CCCC3	inactive: 126%
O=C1OC(Nc2ccc3ncccc3c2)c2ccccc21 (configuration not stated)	active: 30%
CC(C)(C)CC(=O)NC1CC(=O)N(c2ccc3c(c2)OCCO3)C1 (configuration not stated)	inactive: 123%
O=C(c1ccc2c(c1)N(Cc1ccccc1F)C(=O)c1ccccc1S2=O)N1CCOCC1 (configuration not stated)	inactive: 88%
O=C(Nc1c(C(=O)Nc2ccccc2F)oc2ccccc12)c1cc2ccccc2o1	active: 37%
Cc1ccc(C)c(CS(=O)(=O)c2cn(CC(=O)N(C(C)C)C(C)C)c3ccccc23)c1	inactive: 63%
COC(=O)CCn1cnc2onc(-c3cc(F)cc(F)c3)c2c1=O	inactive: 82%
COc1cc(C(CC(=O)NCCC(C)C)N2Cc3ccccc3C2=O)cc(OC)c1OC (configuration not stated)	inactive: 94%

SMILES	survival
COc1cc(NC(=O)CN2CCN(CC(=O)Nc3ccc(F)cc3)CC2)cc(OC)c1	inactive: 70%
Cc1sc2nc(SCC(=O)N(CCO)CCO)nc(N)c2c1C	inactive: 100%
N#Cc1ccc(CSc2nc3c(c(=O)[nH]2)CCCC3)cc1	inactive: 56%
CC(C)C1CC(c2csc(N)n2)CCO1 (configuration not stated)	inactive: 78%
Cc1cccc(N(C)C(=O)CCNS(=O)(=O)c2ccc3c(c2)CCN3C(=O)C2CC2)c1	inactive: 94%
CCOC(=O)c1c(NC(=O)c2cc(C)on2)sc(C)c1C	active: 47%
CNC(=O)c1ccc(Nc2nnc(-c3ccc(C)c(S(=O)(=O)N4CCCCC4)c3)c3ccccc23)cc1	active: 54%
Cc1ccc(-n2ncc3c(N4CCN(C)CC4)ncnc32)cc1Cl	inactive: 96%
CCOc1ccc(NC(=O)CCS(=O)(=O)c2cccc3nonc23)cc1	inactive: 78%
CCc1cccc(NC(=O)CSc2ncccc2C(=O)Oc2ccccc2Cl)c1	inactive: 78%
COc1ccc(CNC(=O)CCC(=O)N2CC3CCCN3c3ccccc32)c(OC)c1 (configuration not stated)	inactive: 78%
CCOc1ccc(C2C(=O)N(C3CCCCC3)CC(=O)N2C2CCCC2)cc1OC (configuration not stated)	inactive: 71%
COc1cc(NC(=O)Cc2c(C(=O)O)c(C)cn2C)cc(OC)c1	inactive: 102%
COc1ccc(/C=C/C(=O)Nc2sc3c(c2C(N)=O)CCC(C)C3)cc1OC (configuration not stated)	active: 34%
CCC(Sc1nc2nccnc2c(=O)n1Cc1ccc(OC)cc1)C(=O)NC1CCCCC1 (configuration not stated)	inactive: 104%
CC(C)C12CN3CC(C(C)C)(CN(C1)C3c1ccc(OCc3ccccc3)cc1)C2=O (configuration not stated)	inactive: 85%
CC(C)n1c(SCC(=O)Nc2ccc(F)cc2)nc2c(oc3ccccc32)c1=O	inactive: 95%
CCOc1ccccc1CNC(=O)c1ccc2c(c1)sc1nc(-c3cccc(OC)c3)cn12	inactive: 66%
COC(=O)c1cc(S(=O)(=O)NCC2CCN(Cc3ccc(C)cc3)CC2)c[nH]1	inactive: 118%
CCOc1ccc(-n2c(SCC(=O)Nc3ccc(F)cc3)nc3c([nH]c4ccccc43)c2=O)cc1	inactive: 69%
NC(=O)c1cc2ccc(O)cc2oc1=O	inactive: 74%
C=CCn1c(=S)[nH]c2ccccc2c1=O	inactive: 95%
Cc1cc(C)c2c(=O)cc(C(=O)Nc3sc4c(c3C(=O)NCc3cccnc3)CCCC4)oc2c1	inactive: 68%

SMILES	survival
O=C(Cc1c(F)cccc1Cl)NCCCn1ccnc1	inactive: 107%
CCCn1c(-c2cccc(Br)c2)nc2ccccc21	active: -4%
CCCN1C(=O)C(Cc2nc3ccccc3c(=O)n2-c2cccc(C)c2)c2ccccc21 (configuration not stated)	active: 36%
Cn1ncc(C(=O)N2CCN(c3ccc(F)cc3)CC2)c1C1CCN(C(=O)OC(C)(C)C)CC1	inactive: 95%
CCCC(c1nnnn1CC1CCCO1)N(Cc1cc2cc(C)cc(C)c2[nH]c1=O)C1CCCC1 (configuration not stated)	inactive: 81%
CC(C)(C)OC(=O)N1CCC(c2nnc(SCc3ccccc3)o2)CC1	inactive: 96%
O=C1OC(C(=O)Nc2ccc(Cl)c(C(F)(F)F)c2)Cc2ccccc21 (configuration not stated)	inactive: 55%
COc1ccccc1CNC(=O)c1ccc(N2Cc3cccc(OC)c3Oc3ncccc32)s1	inactive: 79%
COc1ccc(-c2noc(-c3ccc(N4CCCCC4C)c([N+](=O)[O-])c3)n2)cc1OC (configuration not stated)	inactive: 104%
Cc1ccccc1NC(=O)C(C)Sc1nnc(-c2ccccc2C)o1 (configuration not stated)	inactive: 74%
Cc1ccc(C(=O)n2nc(C)c(S(=O)(=O)N3CCCCCC3)c2C)cc1	inactive: 91%
COc1cccc(C2C(C(=O)Nc3ccccc3)=C(C)Nc3nc(-c4ccccc4)nn32)c1OC (configuration not stated)	inactive: 158%
C=CCNCc1cc2cc(C)cc(C)c2[nH]c1=O	inactive: 69%
Cc1cccc(-c2noc(-c3ccc(N4CCN(C)CC4)c([N+](=O)[O-])c3)n2)c1	active: 22%
Cc1ccc(C)c(CN2CCC(CNC(=O)c3cc4ccc5cccnc5c4[nH]3)CC2)c1	inactive: 83%
Cc1ccc(C)c(S(=O)(=O)n2nnc3ccccc32)c1	inactive: 86%
O=C(Nc1ncn[nH]1)C(F)(F)C(F)F	inactive: 68%
Cc1ccc(C2=CC(c3c(F)cccc3Cl)n3ncnc3N2)cc1C (configuration not stated)	inactive: 64%
CC(=O)Nc1cc(-c2nc3ccccc3s2)ccc1C	inactive: 83%
Cc1cc(C)cc(NC(=O)C2CCCN2S(=O)(=O)c2cccc3nsnc23)c1 (configuration not stated)	inactive: 86%
CCn1c(-c2ccc(S(=O)(=O)N3CCOCC3)cc2)csc1=Nc1ccc(C)c(Cl)c1	inactive: 73%
O=C(CSc1nnc2[nH]c(=O)cc(-c3ccccc3)n12)Nc1ccc(F)cc1F	inactive: 85%
COc1ccc(NC(=O)CSc2nc3nc(C)c(Cc4ccccc4Cl)c(C)n3n2)cc1OC	inactive: 93%
